The whole screen tested about 46,000 compounds, of which about 60 (0.1%) were called active. Inconclusive results (about 3%) are left out. The call rests on the fitted dose curve; in most records, active means well fitted inhibition curve with a large enough effect; inconclusive means small, poorly fitted or top-dose-only effect; inactive means no such curve, though single readings can be large or run the other way. Some of the results follow.

The experiment can be described thus: Primary qHTS assay for Inhibitors of ovarian cancer metastasis using an organotypic tumor microenvironment (TME) model. Further: nearly all actives have a fitted effect of over 65% in size.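 On activity change, negative = inhibition: plate controls were DMSO wells for no effect and tomatine positive control wells for full effect.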 The following applies: SKOV3ip1-GFP adhesion/invasion on 3D omental model, fluorescence; series mostly up to 45.8 µM; activity change, negative = inhibition: at the top concentration. The method, boiled down:
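qHTS, 4-pt dose (0.36-46 umol/L); SKOV3ip1-GFP, 1,200 cells/well, no FBS; primary omental fibroblast/mesothelial co-culture 48 h pre-grown; 2 h RT + 16 h 37 C; PBS wash, 4% PFA; GFP count 488/509 nm.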
A general note: Quantitative high-throughput screening tests each substance at several concentrations.
Consider `Cc1cn2c(=O)cc(COC(=O)c3cccc(NC(=O)COc4ccccc4C)c3)nc2s1`, for which the outcome was inactive. For the molecule `Cc1ccc(NC(=O)CCNS(=O)(=O)c2cccc3nonc23)cc1Cl`, the “activity change, negative = inhibition” value was inactive: -0.313%.

Turning to `CN1C(=O)c2ccccc2Sc2ccc(NC(=O)NCc3cccc(Cl)c3)cc21`, the “activity change, negative = inhibition” value is inactive: 0.766%. On the same count and under the same terms, the value for `Cc1ccc(C(=O)Oc2c(S(=O)(=O)c3ccccc3)c(C)nn2-c2ccccc2)cc1` was inactive: 2.46%; that for `CCOC(=O)CSc1nc(-c2ccc(Cl)cc2)cc(C(F)(F)F)c1C#N` was inactive: 5.83%. On to `CC[C@H](NC(C)C)[C@H](O)c1ccc(O)c2[nH]c(=O)ccc12`, for which the “activity change, negative = inhibition” value was inactive: -12.7%. The same measure, in the same setting: the value for `CCCNC(=O)C(C)n1nc(C)c2c(C)n(-c3ccccc3)nc2c1=O` (stereo not given) was inactive: -0.396%; that for `Cc1ccc(CNC(=O)CSc2c3c(nc4cc(Cl)ccc24)CCCC3)cc1` was inactive: -6.55%. `Cc1c(-c2nc(-c3ccccc3F)no2)nnn1-c1cc(F)ccc1F`: the “activity change, negative = inhibition” value was inactive: 1.97%. Still for that read-out and setting: the value for `COc1ccccc1NC(=O)N1CCC(CN2CCc3ccccc3C2)CC1` was inactive: 0.206%. In the case of `CCc1ccccc1NC(=O)C1CCN(C(=O)N2CC(C)Oc3ccc(Cl)cc32)CC1` (stereo not given), the “activity change, negative = inhibition” value is inactive: -26.7%. Regarding `Cc1cc(F)ccc1NC1(c2ccccc2)C(=O)c2ccccc2C1=O`, the result was inactive. Turning to `COc1ccc(Cl)cc1NC(=O)Cn1nc(Cc2ccncc2)c2ccccc2c1=O`, the “activity change, negative = inhibition” value was inactive: -2.8%. With `CCOc1ccccc1NC(=O)Cn1c(=O)n(Cc2ccco2)c(=O)c2ccc(C(=O)NC3CCCC3)cc21`, the “activity change, negative = inhibition” value was inactive: -2.63%. With `Cc1ccc(NC(=O)Cn2c(=O)oc3ccccc32)cc1C`, the “activity change, negative = inhibition” value was inactive: -5.03%. Take `Cc1ccc(NC(=O)c2sc3nc[nH]c(=O)c3c2C)cc1Cl`: the “activity change, negative = inhibition” value is inactive: -3.61%. For `CCOc1ccc(N(CC(=O)Nc2ccccc2CC)S(=O)(=O)c2c(C)[nH]c(=O)[nH]c2=O)cc1`, the molecule was called inactive.

Regarding `CCOc1ccc(-n2c(SCC(=O)N3CCCCCC3)nc3c([nH]c4ccccc43)c2=O)cc1`, the molecule was called inactive. As to `CCn1cc(C(=O)NCCc2ccc(OC)c(OC)c2)c(=O)c2cc(S(=O)(=O)N3CCC(C)CC3)ccc21`, the result was inactive. As for `Cc1ccc(OC(=O)CSc2nnc(-c3cccs3)o2)cc1C`, the result was inactive. Take `COC(=O)c1c(NC(=O)c2cc(OC)c(OC)c(OC)c2Br)sc2c1CCC(C)C2` (stereo not given): the “activity change, negative = inhibition” value is inactive: 6.41%.

In the case of `Cc1c(Cl)cccc1-n1ncc(C(=O)NCc2cccs2)c1C1CCN(C(=O)OC(C)(C)C)CC1`, the “activity change, negative = inhibition” value is inactive: 3.39%.

On to `COc1ccc(CNC(=O)c2ccc3nc(CCc4ccccc4)oc3c2)c(OC)c1`, for which the molecule was classed as inactive.

With `O=C(CCNS(=O)(=O)c1cccc2nsnc12)NCc1ccccc1`, the molecule was classed as inactive. Take `CC(C)CNc1ncnc2c1nnn2C`: the “activity change, negative = inhibition” value was inactive: 3.98%. Turning to `COc1cc(C2c3c(-c4ccc(C)cc4)n[nH]c3C(=O)N2c2ccc(F)cc2)ccc1O` (stereo not given), the “activity change, negative = inhibition” value is inactive: 11.7%. On the same count and under the same terms, the value for `CNC(=O)Cn1c(=O)c2cccn2c2ccc(F)cc21` was inactive: -9.84%; that for `Cc1cccc(NC(=O)c2cc(S(=O)(=O)N3CCN(c4ccccc4F)CC3)ccc2F)c1C` was inactive: 9.27%; that for `COc1ccc(CNC(=O)CCn2nc(C)c3c(C)n(-c4ccccc4)nc3c2=O)c(OC)c1` was inactive: -5.02%.

`COc1cc(NC(=O)N2CCC3(CC2)Nc2cc(F)ccc2-n2cccc23)cc(OC)c1OC`: the call was inactive.

Regarding `Cc1cc(C)c(NC(=O)Cn2c(=O)nc(-c3ccccc3)c3cc(Cl)ccc32)c(C)c1`, the “activity change, negative = inhibition” value was inactive: 14.4%. For `CC(C)(C)c1ccc(CN(Cc2ccco2)c2cnc(S(C)(=O)=O)nc2C(=O)Nc2ccc(F)cc2)cc1`, the “activity change, negative = inhibition” value is inactive: -20.1%. With `COc1ccc(OC)c(C2C(C(=O)N3CCCCC3)=C(C)Nc3nc4ccccc4n32)c1` (stereo not given), the molecule was classed as inactive.

Regarding `N#C/C(=C/c1cn(Cc2ccccc2Cl)c2ccccc12)C(=O)Nc1cccc(Cl)c1`, the “activity change, negative = inhibition” value was inactive: 9.63%. As for `Clc1ccc(OCc2nc3ccccc3n2Cc2ccccc2)c(Cl)c1`, the “activity change, negative = inhibition” value is inactive: -5.22%. On the same count and under the same terms, the value for `CCc1ccc(-c2nn(CC(=O)Nc3ccccc3C)c3c2cnc2ccc(C)cc23)cc1` was inactive: 0.249%. Take `Cc1ccccc1CN1c2ccccc2-c2nc(SCC(N)=O)ncc2S1(=O)=O`: the “activity change, negative = inhibition” value was inactive: 9.21%. The same measure, in the same setting: the value for `CCc1cccc(CC)c1-n1nnc2c(sc3nc(C)cc(C)c32)c1=O` was inactive: 9.32%. Take `Cc1cc(=O)n(Cc2cccc(F)c2)c2c1c(C)nn2-c1cccc(F)c1`: the “activity change, negative = inhibition” value was inactive: 13.7%. Same read-out and setting: next, `Cc1ccc(C)c(NC(=O)CN2C(=O)c3cccnc3Oc3ccc(C)cc32)c1`: inactive: 2.36%; `Cc1ccc(-c2nn(CC(=O)NC3CCCC3)c3c2cnc2ccccc23)cc1`: inactive: 1.97%; `Cc1ccc(CNC(=O)c2ccc(-c3nc(CS(=O)c4ccccc4)c(C)o3)cc2)cc1` (stereo not given): inactive: -4.7%. As to `Cc1cccc(-c2nc(CSCC(=O)NCCc3ccc(Cl)cc3)c(C)o2)c1`, the “activity change, negative = inhibition” value was inactive: 1.82%. As to `COc1cc(NC(=O)c2nc3ccccc3nc2N2CCCCC2)cc(OC)c1OC`, the “activity change, negative = inhibition” value is inactive: 9.35%. On the same count and under the same terms, the value for `CC(C)(C)C1CCc2c(sc3nnn(CCOc4ccccc4)c(=O)c23)C1` (stereo not given) was inactive: 2.51%; that for `Cc1ccc(C)c(NC(=O)c2nn(C)c3c2CS(=O)(=O)c2ccccc2-3)c1` was inactive: 6.98%; that for `COc1cc(/C=C/c2nc(C#N)c(NCCc3ccccc3)o2)cc(OC)c1OC` was inactive: -9.08%. Consider `CCOC(=O)N1CCc2c(sc3c2c(=O)n(CCc2ccccc2)c(=O)n3CC(=O)Nc2cccc(C)c2)C1`, for which the molecule was called inactive.

For the molecule `COCCn1ccc2c(OCC(=O)Nc3ccccc3F)cccc2c1=O`, the “activity change, negative = inhibition” value is inactive: -1.16%. Still for that read-out and setting: next, `O=C1N(c2ccccc2)c2ccccc2C1(Cc1ccncc1)Cc1ccncc1`: inactive: 3.08%; `COc1cccc(C2=CC(c3ccccc3F)n3ncc(C(=O)Nc4ccc(C)cc4)c3N2)c1` (stereo not given): inactive: 1.6%; `CCC(=O)Nc1ccc(CC)cc1-c1nc2ccccc2n(CC(=O)Nc2cccc(OC)c2)c1=O`: inactive: -25.5%. Still for that read-out and setting: the value for `CC1CCCCN1c1c(S(=O)(=O)c2ccc(Cl)cc2)cnc2ccccc12` (stereo not given) was inactive: -5.19%; that for `Cc1ccc(CCNC(=O)c2sc3ncccc3c2-n2c(C)ccc2C)cc1` was inactive: 11.7%. Regarding `COc1ccc(-c2nc(CS(=O)CC(=O)NCCc3ccccc3)c(C)o2)cc1OC` (stereo not given), the result was inactive. On to `CCOC(=O)c1cc2c(=O)n3ccccc3nc2n(CC(C)C)c1=NC(=O)COc1ccc(Cl)cc1`, for which the “activity change, negative = inhibition” value was inactive: -8.24%. Consider `Cc1cc(C)cc(-n2ccnc(NCCc3ccccc3)c2=O)c1`, for which the molecule was classed as inactive. With `Cc1ccc(N(CC(=O)N2CCN(c3cccc(Cl)c3)CC2)S(=O)(=O)c2c(C)noc2C)cc1`, the “activity change, negative = inhibition” value was inactive: 3.82%.

With `COc1ccc(C)cc1NC(=O)N1CCC(CN2CCOCC2)CC1`, the “activity change, negative = inhibition” value was inactive: 22.5%. As to `COc1ccc(Cl)cc1NC(=O)NCCn1c(=O)oc2ccc(C)cc21`, the call was inactive.

As for `CCc1ccc(-n2c(=O)c3ccccc3n(CC(=O)NCCc3ccc(OC)c(OC)c3)c2=O)cc1`, the “activity change, negative = inhibition” value was inactive: 7.07%. The same measure, in the same setting: the value for `Cc1ccc2oc(C(=O)Nc3ccc(S(=O)(=O)N4CCCC(C)C4)cc3)cc(=O)c2c1` (stereo not given) was inactive: -0.364%. `O=C(O)c1ccccc1C(=O)Nc1ccc(-c2ccccc2)cc1`: the “activity change, negative = inhibition” value was inactive: 9.52%. With `Cc1ccc(C)c(N2CCN(C(=O)c3cnn(C(C)(C)C)c3C3CCN(C(=O)OC(C)(C)C)CC3)CC2)c1`, the result was inactive.

`COc1ccc(OC)c(NC(=O)CCCc2nnc3n(C(C)C)c(=O)c4sccc4n23)c1`: the “activity change, negative = inhibition” value was inactive: -2.92%.

Turning to `CCn1cc2nc(SCc3cccc(C(F)(F)F)c3)n(Cc3ccc(Cl)cc3)c(=O)c2n1`, the “activity change, negative = inhibition” value was inactive: -13.9%. Turning to `Cc1ccc(Cl)cc1-n1nnc(-c2nsc(NC(=O)c3ccccc3Cl)n2)c1C`, the molecule was classed as inactive. Take `CCOc1ccc(NC(=O)CC2C(=O)N(c3ccccc3)C(=O)N2CCc2cccs2)cc1` (stereo not given): the “activity change, negative = inhibition” value was inactive: 3.46%. On the same count and under the same terms, next, `CCN(CC)C(=O)c1sc2c(c1C)c(=O)n(-c1ccccc1)c(=O)n2Cc1c(C)cc(C)cc1C`: inactive: 0.329%.

In the case of `COc1ccc(-c2cn3nc(N4CCC(C(=O)Nc5ccccc5OC)CC4)sc3n2)cc1`, the molecule was called inactive. As to `Cc1ccccc1NC(=O)c1c(NC(=O)c2ccccc2)sc2c1CCC2`, the “activity change, negative = inhibition” value is inactive: -4.78%.

As to `Cc1ccc2cc3cc(C(=O)N4CCN(c5ccc(Cl)cc5)CC4)oc3nc2c1`, the “activity change, negative = inhibition” value was inactive: 4.87%.

With `CCN(CC)C(=O)c1ccc2c(c1)N(Cc1c(F)cccc1Cl)C(=O)c1ccccc1S2`, the “activity change, negative = inhibition” value was inactive: 7.07%.

Consider `CC(C)C(NS(=O)(=O)c1ccc2c(c1)oc(=O)n2C)C(=O)N1CCN(c2cccc(Cl)c2)CC1` (stereo not given), for which the “activity change, negative = inhibition” value was inactive: 1.25%. For the molecule `O=C(CSc1nc(=O)[nH]c2c1CCCC2)Nc1ccc(Cl)c(Cl)c1`, the “activity change, negative = inhibition” value is inactive: 4.71%. Still for that read-out and setting: the value for `COc1ccc(N2CC(NC(=O)c3cccs3)CC2=O)cc1` (stereo not given) was inactive: -2.01%. Same read-out and setting: the value for `COC(=O)Cn1c(=NC(=O)c2ccc3c(c2)OCCO3)sc2ccccc21` was inactive: -2.19%; that for `Cc1ccn2c(Nc3c(C)cccc3C)c(-c3ccsc3)nc2c1` was inactive: -11.8%. Still for that read-out and setting: next, `COc1ccc(NC(=O)C(Cc2c[nH]c3ccccc23)NC(=O)OC(C)(C)C)cc1` (stereo not given): inactive: 3.29%. With `Cc1ccc(C(=O)n2nc(C)c(S(=O)(=O)N3CCCCCC3)c2C)cc1C`, the “activity change, negative = inhibition” value was inactive: 34.2%. Take `C=CC(=O)N1CCC[C@@H](n2nc(-c3ccc(Oc4ccccc4)cc3)c3c(N)ncnc32)C1`: the “activity change, negative = inhibition” value was inactive: -0.0988%. Still for that read-out and setting: next, `Cc1ccc(-n2nc(C(=O)Nc3ccc(F)cc3Cl)c(=O)n(C)c2=O)cc1`: inactive: -1.87%. Take `CCN(CC)S(=O)(=O)c1ccc(NC(=O)c2cc3ccc4cccnc4c3[nH]2)cc1`: the outcome was inactive. With `CCOc1cccc2sc(N3CCN(C(=O)c4ccc5c(c4)CCCC5)CC3)nc12`, the “activity change, negative = inhibition” value is inactive: -6.21%. As to `CCOC(=O)c1c(S(=O)(=O)N2CCC(C(=O)NCc3cccc(C)c3)CC2)c(C)n(C)c1C`, the molecule was classed as inactive.

As to `COc1ccc(Cn2c(=O)n(-c3ccc(F)c(Cl)c3)c(=O)c3c2c2cc(OC)ccc2n3C)cc1`, the result was inactive. For the molecule `COc1ccccc1NC(=O)CSc1nc(O)c(C/C=C/c2ccccc2)c(=O)[nH]1`, the “activity change, negative = inhibition” value is inactive: -0.243%. The same measure, in the same setting: the value for `CCc1nnc(NC(=O)CSc2nccn2Cc2ccc(C)cc2)s1` was inactive: -5.13%; that for `COc1ccc(CNC(=O)c2nc(SCc3ccc(C)cc3)ncc2Cl)cc1` was inactive: -15.9%; that for `CCCCc1ccc(NC(=O)c2cc(-c3ccc(C)c(F)c3)on2)cc1` was inactive: -1.88%.

Consider `Cc1ccc(NC(=O)CN2C(=O)CCc3ccccc32)cc1C`, for which the “activity change, negative = inhibition” value is inactive: -11.4%. `Cc1ccc(OCc2nc(-c3ccc(C(=O)NCCc4ccc(Cl)cc4)cc3)oc2C)cc1`: the result was inactive.

Regarding `CCc1nn(CC(=O)N2CCN(c3cccc(OC)c3)CC2)c(=O)c2cc3occc3n12`, the molecule was called inactive. Turning to `COc1ccc(N2CCN(Cc3nc4c(c(=O)[nH]c(=O)n4C)n3Cc3ccc(C)cc3)CC2)cc1`, the “activity change, negative = inhibition” value was inactive: 3.01%. For `COc1ccc(N(CC(=O)NC(C)c2ccccc2)S(=O)(=O)c2c(C)nn(C)c2C)cc1` (stereo not given), the “activity change, negative = inhibition” value was inactive: 6.19%.
